# Results taken from the supplement of paper PMC8728848.
# Some of the results follow.
# Experiments:
# Assay in all cases: glycan array binding signal (z-score within array); higher = stronger binding
# Conditions in all cases: glycan notation: IUPAC condensed, linker removed
# GalNAc(b1-4)GlcNAc = biological target: GalNAc(b1-4)GlcNAc
# Method in brief: (§1)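 Columns mapping to the same glycan were averaged after glycan names were converted to IUPAC-condensed notation. The data come from 3228 arrays in the Consortium for Functional Glycomics database, limited to those with an available protein sequence. Binding is reported as a within-array Z-score averaged across arrays of one protein sequence and across linkers.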
# [1] = biological target: GalNAc(b1-4)GlcNAc(b1-2)Man
# Method in brief: as §1
# [2] = biological target: GalNAc(b1-4)GlcNAc(b1-2)Man(a1-3)[GalNAc(b1-4)GlcNAc(b1-2)Man(a1-6)]Man(b1-4)GlcNAc(b1-4)GlcNAc
# Method in brief: as §1
# [3] = biological target: GalNAc(b1-4)GlcNAc(b1-3)GalNAc(b1-4)GlcNAc
# Method in brief: as §1
# GalNAc(b1-4)GlcNAc6S = biological target: GalNAc(b1-4)GlcNAc6S
# Method in brief: as §1
# GalNAc(b1-6)GalNAc = biological target: GalNAc(b1-6)GalNAc
# Method in brief: as §1
# GalNAc3S(b1-4)GlcNAc = biological target: GalNAc3S(b1-4)GlcNAc
# Method in brief: as §1
# GalNAc3S(b1-4)GlcNAc3S = biological target: GalNAc3S(b1-4)GlcNAc3S
# Method in brief: as §1
# [4] = biological target: GalNAc3S(b1-4)[Fuc(a1-3)]GlcNAc
# Method in brief: as §1
# GalNAc4S6S(b1-4)GlcNAc = biological target: GalNAc4S6S(b1-4)GlcNAc
# Method in brief: as §1
# GalNAc6S(b1-4)GlcNAc = biological target: GalNAc6S(b1-4)GlcNAc
# Method in brief: as §1
# Glc(a1-4)Glc = biological target: Glc(a1-4)Glc
# Method in brief: as §1
# [5] = biological target: Glc(a1-4)Glc(a1-4)Glc(a1-4)Glc
# Method in brief: as §1
# Glc(a1-6)Glc(a1-6)Glc = biological target: Glc(a1-6)Glc(a1-6)Glc
# Method in brief: as §1
# [6] = biological target: Glc(a1-6)Glc(a1-6)Glc(a1-6)Glc
# Method in brief: as §1
# Glc(b1-4)Glc = biological target: Glc(b1-4)Glc
# Method in brief: as §1
# Glc(b1-6)Glc = biological target: Glc(b1-6)Glc
# Method in brief: as §1
# GlcA(b1-3)Gal = biological target: GlcA(b1-3)Gal
# Method in brief: as §1
# GlcA(b1-3)GlcNAc = biological target: GlcA(b1-3)GlcNAc
# Method in brief: as §1
# GlcA(b1-6)Gal = biological target: GlcA(b1-6)Gal
# Method in brief: as §1
# [7] = biological target: GlcA3S(b1-3)Gal(b1-4)GlcNAc(b1-2)Man
# Method in brief: as §1
# [8] = biological target: GlcA3S(b1-3)Gal(b1-4)GlcNAc(b1-3)Gal(b1-4)Glc
# Method in brief: as §1
# [9] = biological target: GlcNAc(a1-3)Gal(b1-4)GlcNAc
# Method in brief: as §1
# [10] = biological target: GlcNAc(a1-4)Gal(b1-3)GlcNAc
# Method in brief: as §1
# [11] = biological target: GlcNAc(a1-4)Gal(b1-4)GalNAc
# Method in brief: as §1
# [12] = biological target: GlcNAc(a1-4)Gal(b1-4)GlcNAc
# Method in brief: as §1
# [13] = biological target: GlcNAc(a1-4)Gal(b1-4)GlcNAc(b1-3)Gal(b1-4)Glc
# Method in brief: as §1
# [14] = biological target: GlcNAc(a1-4)Gal(b1-4)GlcNAc(b1-3)Gal(b1-4)GlcNAc
# Method in brief: as §1
# [15] = biological target: GlcNAc(a1-4)Gal(b1-4)GlcNAc(b1-3)Gal(b1-4)GlcNAc(b1-3)Gal(b1-4)GlcNAc
# Method in brief: as §1
# [16] = biological target: GlcNAc(a1-4)Gal(b1-4)GlcNAc(b1-3)Gal(b1-4)[Fuc(a1-3)]GlcNAc(b1-3)Gal(b1-4)[Fuc(a1-3)]GlcNAc
# Method in brief: as §1
# [17] = biological target: GlcNAc(a1-6)Gal(b1-4)GlcNAc
# Method in brief: as §1
# [18] = biological target: GlcNAc(b1-2)Gal(b1-3)GalNAc
# Method in brief: as §1
# [19] = biological target: GlcNAc(b1-2)Man(a1-3)[GlcNAc(b1-2)Man(a1-6)]Man(b1-4)GlcNAc(b1-4)GlcNAc
# Method in brief: as §1
# [20] = biological target: GlcNAc(b1-2)Man(a1-3)[GlcNAc(b1-2)Man(a1-6)]Man(b1-4)GlcNAc(b1-4)[Fuc(a1-6)]GlcNAc
# Method in brief: as §1
# [21] = biological target: GlcNAc(b1-2)Man(a1-3)[GlcNAc(b1-4)][GlcNAc(b1-2)Man(a1-6)]Man(b1-4)GlcNAc(b1-4)GlcNAc
# Method in brief: as §1
# [22] = biological target: GlcNAc(b1-2)Man(a1-3)[GlcNAc(b1-4)][GlcNAc(b1-2)Man(a1-6)]Man(b1-4)GlcNAc(b1-4)[Fuc(a1-6)]GlcNAc
# Method in brief: as §1
# [23] = biological target: GlcNAc(b1-2)[GlcNAc(b1-4)]Man(a1-3)[GlcNAc(b1-2)Man(a1-6)]Man(b1-4)GlcNAc(b1-4)GlcNAc
# Method in brief: as §1
# [24] = biological target: GlcNAc(b1-2)[GlcNAc(b1-4)]Man(a1-3)[GlcNAc(b1-4)][GlcNAc(b1-2)Man(a1-6)]Man(b1-4)GlcNAc(b1-4)GlcNAc
# Method in brief: as §1
# [25] = biological target: GlcNAc(b1-2)[GlcNAc(b1-4)]Man(a1-3)[GlcNAc(b1-4)][GlcNAc(b1-2)[GlcNAc(b1-6)]Man(a1-6)]Man(b1-4)GlcNAc(b1-4)GlcNAc
# Method in brief: as §1
# [26] = biological target: GlcNAc(b1-2)[GlcNAc(b1-4)]Man(a1-3)[GlcNAc(b1-4)][GlcNAc(b1-2)[GlcNAc(b1-6)]Man(a1-6)]Man(b1-4)GlcNAc(b1-4)[Fuc(a1-6)]GlcNAc
# Method in brief: as §1
# [27] = biological target: GlcNAc(b1-2)[GlcNAc(b1-6)]Man(a1-6)[GlcNAc(b1-2)Man(a1-3)]Man(b1-4)GlcNAc(b1-4)GlcNAc
# Method in brief: as §1
# [28] = biological target: GlcNAc(b1-2)[GlcNAc(b1-6)]Man(a1-6)[GlcNAc(b1-2)Man(a1-3)]Man(b1-4)GlcNAc(b1-4)[Fuc(a1-6)]GlcNAc
# Method in brief: as §1
# [29] = biological target: GlcNAc(b1-2)[GlcNAc(b1-6)]Man(a1-6)[GlcNAc(b1-4)][GlcNAc(b1-2)Man(a1-3)]Man(b1-4)GlcNAc(b1-4)GlcNAc
# Method in brief: as §1
# GlcNAc(b1-3)Fuc = biological target: GlcNAc(b1-3)Fuc
# Method in brief: as §1
# GlcNAc(b1-3)Gal = biological target: GlcNAc(b1-3)Gal
# Method in brief: as §1
binder,measurement,setting,value
"CGL (Crenomytilus grayanus), H2FH31 (protein) MTTFLIKHKASGKFLHPYGGSSNPANNTKLVLHSDIHERMYFQFDVVDERWGYIKHVASGKIVHPYGGQANPPNETNMVLHQDRHDRALFAMDFFNDNIMHKGGKYIHPKGGSPNPPNNTETVIHGDKHAAMEFIFVSPKNKDKRVLVYA",glycan array binding signal (z-score),GalNAc(b1-4)GlcNAc,1.31
same,glycan array binding signal (z-score),[1],1.47
same,glycan array binding signal (z-score),[2],-0.238
same,glycan array binding signal (z-score),[3],2.96
same,glycan array binding signal (z-score),GalNAc(b1-4)GlcNAc6S,1.38
same,glycan array binding signal (z-score),GalNAc(b1-6)GalNAc,-0.323
same,glycan array binding signal (z-score),GalNAc3S(b1-4)GlcNAc,-0.349
same,glycan array binding signal (z-score),GalNAc3S(b1-4)GlcNAc3S,-0.324
same,glycan array binding signal (z-score),[4],-0.353
same,glycan array binding signal (z-score),GalNAc4S6S(b1-4)GlcNAc,-0.382
same,glycan array binding signal (z-score),GalNAc6S(b1-4)GlcNAc,-0.377
same,glycan array binding signal (z-score),Glc(a1-4)Glc,-0.302
same,glycan array binding signal (z-score),[5],-0.314
same,glycan array binding signal (z-score),Glc(a1-6)Glc(a1-6)Glc,-0.33
same,glycan array binding signal (z-score),[6],-0.343
same,glycan array binding signal (z-score),Glc(b1-4)Glc,-0.247
same,glycan array binding signal (z-score),Glc(b1-6)Glc,-0.375
same,glycan array binding signal (z-score),GlcA(b1-3)Gal,-0.315
same,glycan array binding signal (z-score),GlcA(b1-3)GlcNAc,-0.199
same,glycan array binding signal (z-score),GlcA(b1-6)Gal,-0.346
same,glycan array binding signal (z-score),[7],-0.375
same,glycan array binding signal (z-score),[8],-0.414
same,glycan array binding signal (z-score),[9],-0.361
same,glycan array binding signal (z-score),[10],-0.453
same,glycan array binding signal (z-score),[11],-0.418
same,glycan array binding signal (z-score),[12],-0.358
same,glycan array binding signal (z-score),[13],-0.458
same,glycan array binding signal (z-score),[14],-0.308
same,glycan array binding signal (z-score),[15],-0.359
same,glycan array binding signal (z-score),[16],-0.386
same,glycan array binding signal (z-score),[17],-0.356
same,glycan array binding signal (z-score),[18],-0.385
same,glycan array binding signal (z-score),[19],-0.338
same,glycan array binding signal (z-score),[20],-0.365
same,glycan array binding signal (z-score),[21],-0.362
same,glycan array binding signal (z-score),[22],-0.282
same,glycan array binding signal (z-score),[23],-0.367
same,glycan array binding signal (z-score),[24],-0.324
same,glycan array binding signal (z-score),[25],-0.354
same,glycan array binding signal (z-score),[26],-0.359
same,glycan array binding signal (z-score),[27],-0.389
same,glycan array binding signal (z-score),[28],-0.303
same,glycan array binding signal (z-score),[29],-0.372
same,glycan array binding signal (z-score),GlcNAc(b1-3)Fuc,-0.323
same,glycan array binding signal (z-score),GlcNAc(b1-3)Gal,-0.363
